{"source": "the supplement of paper PMC8728848", "test_in_all_cases": "glycan array binding signal (z-score within array); higher = stronger binding", "conditions_in_all_cases": "glycan notation: IUPAC condensed, linker removed", "key": {"[1]": {"target": "Gal3S(b1-4)[Fuc(a1-3)]Glc", "in_short": "(§1)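 From the Consortium for Functional Glycomics database, 3228 arrays were curated, keeping only those whose protein sequence was available. Binding is given as a within-array Z-score averaged across arrays sharing a protein sequence and across linkers. Negative Z-scores can be read as non-binding.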"}, "[2]": {"target": "Gal3S(b1-4)[Fuc(a1-3)]Glc6S", "in_short": "as §1"}, "[3]": {"target": "Gal3S(b1-4)[Fuc(a1-3)]GlcNAc", "in_short": "as §1"}, "[4]": {"target": "Gal3S(b1-4)[Fuc(a1-3)]GlcNAc6S", "in_short": "as §1"}, "[5]": {"target": "Gal3S4S(b1-4)GlcNAc", "in_short": "as §1"}, "[6]": {"target": "Gal3S6S(b1-4)GlcNAc", "in_short": "as §1"}, "[7]": {"target": "Gal3S6S(b1-4)GlcNAc6S", "in_short": "as §1"}, "[8]": {"target": "Gal4S(b1-4)GlcNAc", "in_short": "as §1"}, "[9]": {"target": "Gal4S6S(b1-4)GlcNAc", "in_short": "as §1"}, "[10]": {"target": "Gal6P(b1-4)GlcNAc", "in_short": "as §1"}, "[11]": {"target": "Gal6S(b1-3)GlcNAc", "in_short": "as §1"}, "[12]": {"target": "Gal6S(b1-3)GlcNAc6S", "in_short": "as §1"}, "[13]": {"target": "Gal6S(b1-4)Glc", "in_short": "as §1"}, "[14]": {"target": "Gal6S(b1-4)Glc6S", "in_short": "as §1"}, "[15]": {"target": "Gal6S(b1-4)GlcNAc", "in_short": "as §1"}, "[16]": {"target": "Gal6S(b1-4)GlcNAc6S", "in_short": "as §1"}, "[17]": {"target": "GalNAc(a1-3)Gal", "in_short": "as §1"}, "[18]": {"target": "GalNAc(a1-3)GalNAc", "in_short": "as §1"}, "[19]": {"target": "GalNAc(a1-3)GalNAc(b1-3)Gal(a1-4)Gal(b1-4)Glc", "in_short": "as §1"}, "[20]": {"target": "GalNAc(a1-3)GalNAc(b1-3)Gal(a1-4)Gal(b1-4)GlcNAc", "in_short": "as §1"}, "[21]": {"target": "GalNAc(b1-3)Gal", "in_short": "as §1"}, "[22]": {"target": "GalNAc(b1-3)Gal(a1-4)Gal(b1-4)GlcNAc", "in_short": "as §1"}, "[23]": {"target": "GalNAc(b1-3)Gal(a1-4)Gal(b1-4)GlcNAc(b1-3)Gal(b1-4)Glc", "in_short": "as §1"}, "[24]": {"target": "GalNAc(b1-3)Gal(a1-6)Gal(b1-4)Glc", "in_short": "as §1"}, "[25]": {"target": "GalNAc(b1-3)GalNAc", "in_short": "as §1"}, "[26]": {"target": "GalNAc(b1-3)GlcNAc", "in_short": "as §1"}, "[27]": {"target": "GalNAc(b1-4)Gal(b1-4)Glc", "in_short": "as §1"}, "[28]": {"target": "GalNAc(b1-4)GlcNAc", "in_short": "as §1"}, "[29]": {"target": "GalNAc(b1-4)GlcNAc(b1-2)Man", "in_short": "as §1"}, "[30]": {"target": "GalNAc(b1-4)GlcNAc(b1-2)Man(a1-3)[GalNAc(b1-4)GlcNAc(b1-2)Man(a1-6)]Man(b1-4)GlcNAc(b1-4)GlcNAc", "in_short": "as §1"}, "[31]": {"target": "GalNAc(b1-4)GlcNAc(b1-3)GalNAc(b1-4)GlcNAc", "in_short": "as §1"}, "[32]": {"target": "GalNAc(b1-4)GlcNAc6S", "in_short": "as §1"}, "[33]": {"target": "GalNAc(b1-6)GalNAc", "in_short": "as §1"}, "[34]": {"target": "GalNAc3S(b1-4)GlcNAc", "in_short": "as §1"}, "[35]": {"target": "GalNAc3S(b1-4)GlcNAc3S", "in_short": "as §1"}, "[36]": {"target": "GalNAc3S(b1-4)[Fuc(a1-3)]GlcNAc", "in_short": "as §1"}, "[37]": {"target": "GalNAc4S6S(b1-4)GlcNAc", "in_short": "as §1"}, "[38]": {"target": "GalNAc6S(b1-4)GlcNAc", "in_short": "as §1"}}, "note": "Some of the results follow."}
{"binder": "Siglec-7-SA-PE-180 (Homo sapiens), Q9Y286 (protein) MLLLLLLPLLWGRERVEGQKSNRKDYSLTMQSSVTVQEGMCVHVRCSFSYPVDSQTDSDPVHGYWFRAGNDISWKAPVATNNPAWAVQEETRDRFHLLGDPQTKNCTLSIRDARMSDAGRYFFRMEKGNIKWNYKYDQLSVNVTALTHRPNILIPGTLESGCFQNLTCSVPWACEQGTPPMISWMGTSVSPLHPSTTRSSVLTLIPQPQHHGTSLTCQVTLPGAGVTTNRTIQLNVSYPPQNLTVTVFQGEGTASTALGNSSSLSVLEGQSLRLVCAVDSNPPARLSWTWRSLTLYPSQPSNPLVLELQVHLGDEGEFTCRAQNSLGSQHVSLNLSLQQEYTGKMRPVSGVLLGAVGGAGATALVFLSFCVIFIVVRSCRKKSARPAADVGDIGMKDANTIRGSASQGNLTESWADDNPRHHGLAAHSSGEEREIQYAPLSFHKGEPQDLSGQEATNNEYSEIKIPK", "values": [{"measurement": "glycan array binding signal (z-score)", "setting": "[1]", "result": -0.117}, {"measurement": "glycan array binding signal (z-score)", "setting": "[2]", "result": 0.456}, {"measurement": "glycan array binding signal (z-score)", "setting": "[3]", "result": 0.257}, {"measurement": "glycan array binding signal (z-score)", "setting": "[4]", "result": 0.218}, {"measurement": "glycan array binding signal (z-score)", "setting": "[5]", "result": 0.84}, {"measurement": "glycan array binding signal (z-score)", "setting": "[6]", "result": 0.345}, {"measurement": "glycan array binding signal (z-score)", "setting": "[7]", "result": 0.081}, {"measurement": "glycan array binding signal (z-score)", "setting": "[8]", "result": -0.277}, {"measurement": "glycan array binding signal (z-score)", "setting": "[9]", "result": -0.029}, {"measurement": "glycan array binding signal (z-score)", "setting": "[10]", "result": 0.398}, {"measurement": "glycan array binding signal (z-score)", "setting": "[11]", "result": 0.283}, {"measurement": "glycan array binding signal (z-score)", "setting": "[12]", "result": 2.28}, {"measurement": "glycan array binding signal (z-score)", "setting": "[13]", "result": -0.395}, {"measurement": "glycan array binding signal (z-score)", "setting": "[14]", "result": -0.108}, {"measurement": "glycan array binding signal (z-score)", "setting": "[15]", "result": -0.352}, {"measurement": "glycan array binding signal (z-score)", "setting": "[16]", "result": 2.43}, {"measurement": "glycan array binding signal (z-score)", "setting": "[17]", "result": -0.411}, {"measurement": "glycan array binding signal (z-score)", "setting": "[18]", "result": -0.472}, {"measurement": "glycan array binding signal (z-score)", "setting": "[19]", "result": -0.316}, {"measurement": "glycan array binding signal (z-score)", "setting": "[20]", "result": -0.177}, {"measurement": "glycan array binding signal (z-score)", "setting": "[21]", "result": -0.365}, {"measurement": "glycan array binding signal (z-score)", "setting": "[22]", "result": 0.344}, {"measurement": "glycan array binding signal (z-score)", "setting": "[23]", "result": -0.27}, {"measurement": "glycan array binding signal (z-score)", "setting": "[24]", "result": -0.252}, {"measurement": "glycan array binding signal (z-score)", "setting": "[25]", "result": -0.028}, {"measurement": "glycan array binding signal (z-score)", "setting": "[26]", "result": -0.342}, {"measurement": "glycan array binding signal (z-score)", "setting": "[27]", "result": 0.174}, {"measurement": "glycan array binding signal (z-score)", "setting": "[28]", "result": 0.69}, {"measurement": "glycan array binding signal (z-score)", "setting": "[29]", "result": -0.578}, {"measurement": "glycan array binding signal (z-score)", "setting": "[30]", "result": -0.325}, {"measurement": "glycan array binding signal (z-score)", "setting": "[31]", "result": 0.047}, {"measurement": "glycan array binding signal (z-score)", "setting": "[32]", "result": 0.047}, {"measurement": "glycan array binding signal (z-score)", "setting": "[33]", "result": -0.316}, {"measurement": "glycan array binding signal (z-score)", "setting": "[34]", "result": 0.257}, {"measurement": "glycan array binding signal (z-score)", "setting": "[35]", "result": 2.05}, {"measurement": "glycan array binding signal (z-score)", "setting": "[36]", "result": 0.264}, {"measurement": "glycan array binding signal (z-score)", "setting": "[37]", "result": 1.85}, {"measurement": "glycan array binding signal (z-score)", "setting": "[38]", "result": -0.109}]}
